In PubChem BioAssay AID686978 (National Center for Advancing Translational Sciences (NCATS), 2013):
The whole screen tested about 420,000 compounds, of which about 64,000 (15%) were called active. The shares of active, inactive and inconclusive entries below differ from those in the screen. Calls come from the whole dose curve; as a rule, active = well fitted inhibition curve with a large enough effect; inconclusive = small, poorly fitted or top-dose-only effect; inactive = flat fitted curve, though single readings scatter. No potency is given beside an inconclusive call; the fits are too rough.

Test: qHTS for Inhibitors of human tyrosyl-DNA phosphodiesterase 1 (TDP1): qHTS in cells in absence of CPT; note: nearly all actives have a fitted effect of over 55% in size
Details: DT40 Tdp1-/- hTDP1 cells, no CPT, ATP luminescence, 48 h; activity change, negative = growth inhibition: at 46.2 µM (top of the series) unless noted
Outline: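 No-CPT arm: Tdp1-/-;hTDP1 DT40 cells (400/well) plus compounds, incubated ≥48 hr at 37 °C. Readout CellTiter-Glo luminescence.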
% is set by controls: 0 for no effect and ±100 for the full control effect; potency is the fitted concentration of half-maximal effect; tags give direction and shape of the fitted curve.

Compound | Potency | activity change, negative = growth inhibition
CCCCCN(C(=O)NC(=O)Nc1ccccc1C)S(C)(=O)=O | inconclusive [inhibitor, partial curve] | 
CCOc1ccc(NC(=O)CN2CCN(C3c4ccccc4-c4ccccc43)CC2)cc1 | inconclusive [inhibitor, partial curve, poor fit] | 
CCS(=O)(=O)N1CCc2cc(C(=O)NCCc3ccc(OC)c(OC)c3)ccc21 |  | inactive: -12.7%
CCOC(=O)c1nnn(CC(=O)N2N=C(c3cc(C)ccc3C)CC2c2ccc(OC)cc2)c1C(=O)OCC (stereo unspecified) | active: 14.6 µM | 
Cc1nc2ccccn2c1C(=O)N/N=C/c1ccc(CNC(=O)C(=O)Nc2ccccc2)o1 | inconclusive [inhibitor, single point] | 
CCN1CCN(Cc2ccc(NC(=O)c3cc(NC(=O)c4cnn(-c5ccccc5)c4N)cc(OC)c3)cc2C(F)(F)F)CC1 | active: 20.6 µM | 
O=C(CSc1nnc2scc(-c3ccccc3)n12)Nc1nsc(-c2ccccc2)n1 | active: 23.1 µM | 
CCCCC(C(=O)NC(C)(C)C)N(Cc1ccccc1Cl)C(=O)c1snc(C(N)=O)c1N (stereo unspecified) | inconclusive [inhibitor, single point] | 
Cc1ccc(C2CCN(C(=O)Nc3ccc(C)c(C)c3)C2)cc1 (stereo unspecified) | inconclusive [inhibitor, single point] | 
CSc1c(-c2ccccn2)c(N)nn1C(=O)C1CCC1 | inconclusive [inhibitor, partial curve] | 
COC(=O)[C@@H](NS(=O)(=O)c1cc(Br)ccc1Br)C(C)C | inconclusive [inhibitor, single point] | 
CC(=O)c1ccc(N2CCN(Cc3nc4ccccc4[nH]3)CC2)cc1 | inconclusive [inhibitor, partial curve, poor fit] | 
CC1([N+](=O)[O-])COC(C=Cc2ccccc2)OC1 (stereo unspecified) |  | inactive: -0.168%
CCOC(=O)c1sc(NC(=O)CSc2nc3cccnc3n2C)nc1C |  | inactive: -14%
O=C(CSc1nnc2ccccn12)N1CCc2ccccc21 |  | inactive: -4.11%
Cc1ccn2c(Cc3ccccc3)c(-c3ccc(F)cc3)nc2c1 | active: 20.6 µM | 
Cc1ccc(NC(=O)c2sc3ncnc(N(C)C4CCCCC4)c3c2C)cc1 | inconclusive [inhibitor, single point] | 
COc1ccccc1NC(=S)N(Cc1ccc(C)cc1)Cc1ccccn1 |  | inactive: -22.1%
Cc1ccc(NC(=O)CCNS(=O)(=O)c2ccccc2F)cc1S(=O)(=O)N1CCOCC1 | inconclusive [inhibitor, single point] | 
Cc1ccc(N2CC(C)Cn3c2nc2c3c(=O)n(CC(=O)OCc3ccccc3)c(=O)n2C)cc1C (stereo unspecified) | active: 17.8 µM | 
Cc1nc(NC(=O)C(C)(C)C)sc1C(=O)Cn1cc(CCc2ccccc2)nn1 | inconclusive [inhibitor, single point] | 
CC(=O)OCC(=O)C1(O)CCC2C3CC(F)C4=CC(=O)CCC4(C)C3C(O)CC21C (stereo unspecified) |  | inactive: -26.7%
CC(=O)c1cccc(NC(=S)NCCc2ccc(F)cc2)c1 | inconclusive [inhibitor, partial curve] | 

Compound | Potency | activity change, negative = growth inhibition
COCCn1c(SCC(=O)c2c(-c3ccccc3)n(C)c3ccccc23)nnc1-c1ccncc1 | inconclusive [inhibitor, single point] | 
Cc1cc(C)c(S(=O)(=O)NCCc2csc3nc(-c4ccc(Cl)cc4)nn23)c(C)c1 | active: 18.4 µM | 
COc1cccc2cc(C(=O)N(Cc3cccs3)Cc3cccs3)c(=O)oc12 | inconclusive [inhibitor, single point] | 
CCCc1cc(C(=O)Nc2cc(OC)ccc2OC)cs1 |  | inactive: -14.4%
CC(C)(C)OC(=O)N1CCC(C(=O)Nc2cccc(C(=O)N3CCCC3)c2)CC1 |  | inactive: -11%
COc1cccc(/C=N/Nc2cc(Cl)nc(C)n2)c1O |  | inactive: 0.71%
O=C(CSc1nnc(NC(=O)c2ccccc2F)s1)NCC1CCCO1 (stereo unspecified) |  | inactive: -4.41%
Cc1ccc(N(CC(=O)Nc2cc(Cl)ccc2Oc2ccccc2)S(C)(=O)=O)c(C)c1 | inconclusive [inhibitor, single point] | 
CCCc1nc2c3ccccc3ccn2c1CC1CCCCC1 | inconclusive [inhibitor, single point] | 
CC(C)c1ccc(NC(=S)NCc2ccc3c(c2)OCO3)cc1 | inconclusive [inhibitor, single point] | 
Cc1ccc2c(CC(=O)NCc3cccs3)coc2c1 | inconclusive [inhibitor, partial curve] | 
O=C(NCc1ccccn1)Nc1cccc(Cl)c1Cl |  | inactive: 13.6%
Cc1ccc(CNC(=O)C2(C)Oc3ccccc3NC2=O)cc1 (stereo unspecified) |  | inactive: -1.83%
CC1(Oc2ccc(Cl)cc2)CCN(Cc2csc3ccccc23)C1 (stereo unspecified) | inconclusive [inhibitor, single point] | 
Cc1ccccc1OCc1ccc(-c2nc(C#N)c(N3CCC(C(N)=O)CC3)o2)o1 | inconclusive [inhibitor, single point] | 
O=C(Cc1cccc(C(F)(F)F)c1)Nc1cc(S(=O)(=O)N2CCOCC2)ccc1N1CCCC1 | inconclusive [inhibitor, single point] | 
CCCCNS(=O)(=O)NC(=O)C1=C(N2CCCC2)COC1=O |  | inactive: -0.914%
O=C1CSC(c2ccncc2)N1Cc1ccco1 (stereo unspecified) |  | inactive: -1.03%
COc1ccc(/C=C/C(=O)c2ccc(Cl)s2)cc1O | active: 18.4 µM | 
C[C@H]1[C@H](C)CC[C@]2(C(=O)O)CC[C@]3(C)C(=CCC4[C@@]5(C)C[C@@H](O)[C@H](O)[C@@](C)(CO)[C@@H]5CC[C@]43C)[C@H]12 (stereo partly specified) |  | inconclusive: -30.8% [inhibitor]
CCOc1ccc2c(c1)c(=O)c(S(=O)(=O)c1ccc(Cl)cc1)cn2Cc1ccccc1C | inconclusive [inhibitor, partial curve, poor fit] | 
COc1ccccc1Nc1nc(-c2ccccc2O)nc2ccccc12 | inconclusive [inhibitor, partial curve] | 
COc1ccc(Cl)cc1NC(=O)CN(C)C(=O)c1cc2c(s1)CCCC2 | inconclusive [inhibitor, single point] | 
